# Results reported in ChEMBL document CHEMBL5606458, “ASAP - ZIKV NS2B-NS3 protease fluorescence single point” (2024).
# In all, about 2,700 compounds went through this assay and about 160 (5.9%) showed an effect of 50% or more. The list shows a part of the results.
# Target: Nonstructural protein 3 (Zika virus) (UniProt A0A024AXB9)
# [1] = PRVABC59, Concentration 15.0 uM, Number of replicates 1.0
# [2] = PRVABC59, Concentration 10.0 uM, Number of replicates 1.0
# [3] = PRVABC59, Concentration 50.0 uM, Number of replicates 1.0
# Sequence of UniProt A0A024AXB9 (A0A024AXB9 as listed by the source): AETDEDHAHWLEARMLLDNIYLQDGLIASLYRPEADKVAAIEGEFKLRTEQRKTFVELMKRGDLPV
structure (smiles),measurement,setting,value
Cc1cc(CO)c2cccc(Cc3cccc(NC(=O)Cc4nnc(C)[nH]4)c3)c2n1,inhibition,"PRVABC59, Concentration 49.95 uM, Number of replicates 2.0, Standard deviation 1.129082461470468 %",2.52%
same,inhibition,"PRVABC59, Concentration 99.9 uM, Number of replicates 2.0, Standard deviation 0.15054449678345644 %",12.9%
Cc1cc(CO)c2cccc(NCc3ccc(C)o3)c2n1,inhibition,"PRVABC59, Concentration 49.95 uM, Number of replicates 2.0, Standard deviation 1.0644564227188946 %",-0.678%
same,inhibition,"PRVABC59, Concentration 99.9 uM, Number of replicates 2.0, Standard deviation 1.1350838565970554 %",0.478%
O=C(Nc1ccc(Br)c2ccccc12)c1cc(Cl)ccc1NS(=O)(=O)c1ccc(Oc2ccccc2Cl)cc1,inhibition,[1],21.9%
c1ccc2[nH]c(CC3CCN(c4ncnc5[nH]ccc45)CC3)nc2c1,inhibition,"PRVABC59, Concentration 49.5 uM, Number of replicates 2.0, Standard deviation 0.8729323765409018 %",-3.7%
same,inhibition,"PRVABC59, Concentration 99.01 uM, Number of replicates 2.0, Standard deviation 2.6991147561762485 %",1.52%
same,inhibition,"PRVABC59, Concentration 198.0 uM, Number of replicates 2.0, Standard deviation 4.214592802372255 %",7.18%
O=C(c1cc(Cl)ccc1NS(=O)(=O)c1ccc(Oc2ccccc2Cl)cc1)N1CCC(N2CCCC2=O)CC1,inhibition,[1],-2.59%
COc1cc(Cc2cc(F)c3c(c2)CC(=O)N3)nc(N2CCNCC2)n1,inhibition,"PRVABC59, Concentration 49.5 uM, Number of replicates 2.0, Standard deviation 12.783278069366851 %",0.305%
same,inhibition,"PRVABC59, Concentration 99.01 uM, Number of replicates 2.0, Standard deviation 2.2087504404602174 %",14.9%
same,inhibition,"PRVABC59, Concentration 198.0 uM, Number of replicates 2.0, Standard deviation 3.2930472392345242 %",25.3%
COc1ccccc1N1CCN(C(=O)c2cccc(Cc3cccc4c(CO)cc(C)nc34)c2)CC1,inhibition,"PRVABC59, Concentration 49.95 uM, Number of replicates 2.0, Standard deviation 0.1677906500193262 %",-4.17%
same,inhibition,"PRVABC59, Concentration 99.9 uM, Number of replicates 2.0, Standard deviation 0.6187282959007806 %",1.87%
Cc1cccc(OC2CN(C(=O)c3cc(Cl)ccc3NS(=O)(=O)c3ccc(Oc4ccccc4Cl)cc3)C2)c1,inhibition,[1],0.929%
CCCOc1ccc([C@H](C)NC(=O)C2CCN(c3ccc(C=O)cc3)CC2)cc1,inhibition,[2],6.77%
COc1cccc2c1OC[C@@H](NC(=O)C1CCN(c3ccc(C=O)cc3)CC1)C2,inhibition,[3],5.34%
NCC1(c2ccccn2)CCCC1,inhibition,"PRVABC59, Concentration 99.5 uM, Number of replicates 2.0, Standard deviation 2.993295143702377 %",-6.69%
N=C(N)NC[C@@H]1CCCN(C(=O)[C@H](Cc2ccc(CN)cc2)NC(=O)c2ccccc2)C1,inhibition,"PRVABC59, Concentration 49.5 uM, Number of replicates 2.0, Standard deviation 0.6960698702606968 %",2.68%
same,inhibition,"PRVABC59, Concentration 99.01 uM, Number of replicates 2.0, Standard deviation 1.1872902095434084 %",12.8%
same,inhibition,"PRVABC59, Concentration 198.0 uM, Number of replicates 2.0, Standard deviation 0.3804343133987339 %",26.8%
Cc1cc(CO)c2cccc(Cc3cccc(NC(=O)[C@@H](N)c4ccsc4)c3)c2n1,inhibition,"PRVABC59, Concentration 49.95 uM, Number of replicates 2.0, Standard deviation 2.2932916237764616 %",14.9%
same,inhibition,"PRVABC59, Concentration 99.9 uM, Number of replicates 2.0, Standard deviation 2.1427484756921573 %",24.4%
Cc1cc(CO)c2cccc(Cc3ccccc3C(=O)N[C@@H](CCC(N)=O)C(=O)O)c2n1,inhibition,"PRVABC59, Concentration 49.95 uM, Number of replicates 2.0, Standard deviation 1.0696657731948411 %",-4.71%
same,inhibition,"PRVABC59, Concentration 99.9 uM, Number of replicates 2.0, Standard deviation 0.7655451252044032 %",0.649%
CCn1nnc(CNC(=O)[C@]2(c3ccc(F)cc3)CCCNC2)n1,inhibition,"PRVABC59, Concentration 49.5 uM, Number of replicates 2.0, Standard deviation 1.307616764643706 %",-3.12%
same,inhibition,"PRVABC59, Concentration 99.01 uM, Number of replicates 2.0, Standard deviation 2.1661130869263534 %",-2.65%
same,inhibition,"PRVABC59, Concentration 198.0 uM, Number of replicates 2.0, Standard deviation 0.015898128433097316 %",-2.33%
N#Cc1ccc(NC(=O)C2CCN(c3ccc(C=O)cc3)CC2)c(I)c1,inhibition,[3],24.2%
COc1ncc(NC(=O)c2cc(Cl)ccc2NS(=O)(=O)c2ccc(Oc3ccccc3Cl)cc2)cc1Br,inhibition,[1],67.3%
O=C(Nc1cccc(OC(F)(F)F)c1)c1cc(Cl)ccc1NS(=O)(=O)c1ccc(Oc2ccccc2Cl)cc1,inhibition,[1],40.8%
O[C@]1(C(F)(F)F)CC[C@H](CNCc2nnc3ccccn23)CC1,inhibition,"PRVABC59, Concentration 49.5 uM, Number of replicates 2.0, Standard deviation 1.3334657429368013 %",-1.13%
same,inhibition,"PRVABC59, Concentration 99.01 uM, Number of replicates 2.0, Standard deviation 1.3822305106743 %",-1.93%
same,inhibition,"PRVABC59, Concentration 198.0 uM, Number of replicates 2.0, Standard deviation 2.4886877009271497 %",-0.977%
CC(C)(CO)NC(=O)c1cc(Cl)cc(NC(=O)[C@@H](N)c2cccc(Cl)c2)c1,inhibition,"PRVABC59, Concentration 49.5 uM, Number of replicates 2.0, Standard deviation 0.37125456120566713 %",3.24%
same,inhibition,"PRVABC59, Concentration 99.01 uM, Number of replicates 2.0, Standard deviation 0.3445899360267649 %",7.58%
same,inhibition,"PRVABC59, Concentration 198.0 uM, Number of replicates 2.0, Standard deviation 0.35074337590935545 %",13.2%
O=Cc1ccc(N2CCC(C(=O)NCc3ccc4c(c3)OCO4)CC2)cc1,inhibition,[2],7.09%
O=C(c1cc(Cl)ccc1NS(=O)(=O)c1ccc(Oc2ccccc2Cl)cc1)N(Cc1ccccc1)Cc1ccc(Br)cc1,inhibition,[1],41.9%
O=C(NCc1ccc2c(c1)OCO2)c1cc(Cl)ccc1NS(=O)(=O)c1ccc(Oc2ccccc2Cl)cc1,inhibition,[1],29.7%
O=Cc1ccc(N2CCC(C(=O)NC[C@H](O)c3ccc(O)cc3)CC2)cc1,inhibition,[3],14.8%
CNc1ccc(-c2ccccc2C(=O)Nc2cnn(C)c2)cn1,inhibition,"PRVABC59, Concentration 49.5 uM, Number of replicates 2.0, Standard deviation 1.5073145177408105 %",-1.84%
same,inhibition,"PRVABC59, Concentration 99.01 uM, Number of replicates 2.0, Standard deviation 1.7123668593538302 %",0.301%
same,inhibition,"PRVABC59, Concentration 198.0 uM, Number of replicates 2.0, Standard deviation 2.174633915289801 %",0.018%
NC(=O)c1cccc(NC(=O)[C@@H](NC(=O)c2ccc(Oc3ccc(C(F)(F)F)cc3)cc2)c2ccc(OCc3ccccc3)cc2)c1,inhibition,"PRVABC59, Concentration 49.5 uM, Number of replicates 2.0, Standard deviation 0.46044521626223894 %",6.3%
same,inhibition,"PRVABC59, Concentration 99.01 uM, Number of replicates 2.0, Standard deviation 0.010097036204057861 %",14.7%
same,inhibition,"PRVABC59, Concentration 198.0 uM, Number of replicates 2.0, Standard deviation 0.34129506399757725 %",30.3%
